{"source": "paper PMC9644274", "key": {"[1]": {"molecular_target": "RTN3 (reticulon 3), split-ubiquitin fusion in yeast (Arabidopsis thaliana) (UniProt Q9SH59)", "assay": "two-hybrid; yeast mating-based split-ubiquitin system (mbSUS); Nub and Cub fusions; colony growth indicates an interaction"}, "[2]": {"molecular_target": "T1, RTN6 (reticulon 6), split-ubiquitin fusion in yeast (Arabidopsis thaliana), Q6DBN4", "T1 chain": "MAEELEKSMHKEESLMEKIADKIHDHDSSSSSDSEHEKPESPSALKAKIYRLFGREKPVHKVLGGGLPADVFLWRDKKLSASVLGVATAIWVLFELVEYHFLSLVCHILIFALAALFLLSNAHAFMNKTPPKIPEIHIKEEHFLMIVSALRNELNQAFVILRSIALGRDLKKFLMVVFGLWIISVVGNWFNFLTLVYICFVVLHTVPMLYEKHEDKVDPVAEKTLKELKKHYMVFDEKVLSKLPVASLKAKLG", "assay": "two-hybrid; yeast mating-based split-ubiquitin system (mbSUS); Nub and Cub fusions; colony growth indicates an interaction", "conditions": "remark: other sources report otherwise"}, "[3]": {"molecular_target": "T2, RTN3 (reticulon 3), split-ubiquitin fusion in yeast (Arabidopsis thaliana), Q9SH59", "T2 chain": "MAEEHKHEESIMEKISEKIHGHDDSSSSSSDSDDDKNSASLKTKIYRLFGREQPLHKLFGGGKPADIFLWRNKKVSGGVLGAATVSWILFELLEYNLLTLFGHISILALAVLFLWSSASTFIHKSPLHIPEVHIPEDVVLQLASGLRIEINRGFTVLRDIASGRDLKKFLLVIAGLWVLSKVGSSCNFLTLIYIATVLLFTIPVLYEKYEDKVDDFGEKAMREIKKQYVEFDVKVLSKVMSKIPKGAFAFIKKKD", "assay": "two-hybrid; yeast mating-based split-ubiquitin system (mbSUS); Nub and Cub fusions; colony growth indicates an interaction", "conditions": "remark: other sources report otherwise"}, "[4]": {"molecular_target": "T3, GFP-RTN6 (Arabidopsis thaliana) (UniProt Q6DBN4)", "T3 sequence": "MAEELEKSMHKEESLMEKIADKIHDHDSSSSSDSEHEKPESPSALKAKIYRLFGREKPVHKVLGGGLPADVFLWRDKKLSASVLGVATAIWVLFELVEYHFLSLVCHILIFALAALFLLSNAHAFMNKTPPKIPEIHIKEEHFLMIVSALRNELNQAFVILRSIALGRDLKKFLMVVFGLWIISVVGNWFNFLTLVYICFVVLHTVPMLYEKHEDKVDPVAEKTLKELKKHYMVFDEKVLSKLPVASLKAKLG", "assay": "FRET or BRET; FRET-FLIM in tobacco leaf epidermal cells, transient expression; GFP fusion as donor, mRFP fusion as acceptor; a reduction of the donor's lifetime of 0.2 ns or more is taken as energy transfer"}, "[5]": {"molecular_target": "T4, GFP-RTN3 (Arabidopsis thaliana) (UniProt Q9SH59)", "T4 sequence": "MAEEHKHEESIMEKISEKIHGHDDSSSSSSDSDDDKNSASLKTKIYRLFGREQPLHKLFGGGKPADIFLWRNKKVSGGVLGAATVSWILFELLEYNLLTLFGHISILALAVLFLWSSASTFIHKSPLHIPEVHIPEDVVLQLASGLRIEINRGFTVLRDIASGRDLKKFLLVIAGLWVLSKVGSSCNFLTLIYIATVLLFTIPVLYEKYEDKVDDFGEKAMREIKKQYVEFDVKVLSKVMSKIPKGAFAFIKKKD", "assay": "FRET or BRET; FRET-FLIM in tobacco leaf epidermal cells, transient expression; GFP fusion as donor, mRFP fusion as acceptor; a reduction of the donor's lifetime of 0.2 ns or more is taken as energy transfer"}}, "note": "Results are given in words; binding and its absence hold for the method and conditions named. For part of these data: Binding seen in cells or lysates may run through a third protein. Tags and fused reporters may be left off the sequences shown. Some entries that bind do so weakly or less than the wild type.", "data": [{"binder": "RTN3 (reticulon 3), split-ubiquitin fusion in yeast (protein, UniProt Q9SH59 1-255) MAEEHKHEESIMEKISEKIHGHDDSSSSSSDSDDDKNSASLKTKIYRLFGREQPLHKLFGGGKPADIFLWRNKKVSGGVLGAATVSWILFELLEYNLLTLFGHISILALAVLFLWSSASTFIHKSPLHIPEVHIPEDVVLQLASGLRIEINRGFTVLRDIASGRDLKKFLLVIAGLWVLSKVGSSCNFLTLIYIATVLLFTIPVLYEKYEDKVDDFGEKAMREIKKQYVEFDVKVLSKVMSKIPKGAFAFIKKKD", "values": [{"measurement": "binding", "setting": "[1]", "result": "binds"}]}, {"binder": "RTN3 (reticulon 3), split-ubiquitin fusion in yeast, Q9SH59 1-255 (protein) MAEEHKHEESIMEKISEKIHGHDDSSSSSSDSDDDKNSASLKTKIYRLFGREQPLHKLFGGGKPADIFLWRNKKVSGGVLGAATVSWILFELLEYNLLTLFGHISILALAVLFLWSSASTFIHKSPLHIPEVHIPEDVVLQLASGLRIEINRGFTVLRDIASGRDLKKFLLVIAGLWVLSKVGSSCNFLTLIYIATVLLFTIPVLYEKYEDKVDDFGEKAMREIKKQYVEFDVKVLSKVMSKIPKGAFAFIKKKD", "values": [{"measurement": "binding", "setting": "[2]", "result": "binds"}]}, {"binder": "RTN6 (reticulon 6), split-ubiquitin fusion in yeast, Q6DBN4 1-253 (protein) MAEELEKSMHKEESLMEKIADKIHDHDSSSSSDSEHEKPESPSALKAKIYRLFGREKPVHKVLGGGLPADVFLWRDKKLSASVLGVATAIWVLFELVEYHFLSLVCHILIFALAALFLLSNAHAFMNKTPPKIPEIHIKEEHFLMIVSALRNELNQAFVILRSIALGRDLKKFLMVVFGLWIISVVGNWFNFLTLVYICFVVLHTVPMLYEKHEDKVDPVAEKTLKELKKHYMVFDEKVLSKLPVASLKAKLG", "values": [{"measurement": "binding", "setting": "[3]", "result": "binds"}, {"measurement": "binding", "setting": "[2]", "result": "binds"}]}, {"binder": "mRFP-ANNAT4 (Annexin 4) (protein, UniProt Q9ZVJ6 1-319) MALPLELESLTEAISAGMGMGVDENALISTLGKSQKEHRKLFRKASKSFFVEDEERAFEKCHDHFVRHLKLEFSRFNTAVVMWAMHPWERDARLVKKALKKGEEAYNLIVEVSCTRSAEDLLGARKAYHSLFDQSMEEDIASHVHGPQRKLLVGLVSAYRYEGNKVKDDSAKSDAKILAEAVASSGEEAVEKDEVVRILTTRSKLHLQHLYKHFNEIKGSDLLGGVSKSSLLNEALICLLKPALYFSKILDASLNKDADKTTKKWLTRVFVTRADHSDEMNEIKEEYNNLYGETLAQRIQEKIKGNYRDFLLTLLSKSD", "values": [{"measurement": "binding", "setting": "[4]", "result": "no binding"}, {"measurement": "binding", "setting": "[5]", "result": "no binding"}]}]}
